From paper PMC4336329 (PLoS ONE, 2015) come the findings set out here.

The whole screen tested about 310,000 compounds, of which about 2,200 (0.71%) showed an effect of 50% or more. The effect is printed as a negative number. The list shows a part of the results.

The assay deals with human ether-à-go-go-related gene (hERG) potassium channel (human, UniProt Q12809). In words: primary screen, population patch clamp on CHO cells stably expressing hERG.
Chain of human ether-à-go-go-related gene (hERG) potassium channel (Q12809 whole entry, looked up): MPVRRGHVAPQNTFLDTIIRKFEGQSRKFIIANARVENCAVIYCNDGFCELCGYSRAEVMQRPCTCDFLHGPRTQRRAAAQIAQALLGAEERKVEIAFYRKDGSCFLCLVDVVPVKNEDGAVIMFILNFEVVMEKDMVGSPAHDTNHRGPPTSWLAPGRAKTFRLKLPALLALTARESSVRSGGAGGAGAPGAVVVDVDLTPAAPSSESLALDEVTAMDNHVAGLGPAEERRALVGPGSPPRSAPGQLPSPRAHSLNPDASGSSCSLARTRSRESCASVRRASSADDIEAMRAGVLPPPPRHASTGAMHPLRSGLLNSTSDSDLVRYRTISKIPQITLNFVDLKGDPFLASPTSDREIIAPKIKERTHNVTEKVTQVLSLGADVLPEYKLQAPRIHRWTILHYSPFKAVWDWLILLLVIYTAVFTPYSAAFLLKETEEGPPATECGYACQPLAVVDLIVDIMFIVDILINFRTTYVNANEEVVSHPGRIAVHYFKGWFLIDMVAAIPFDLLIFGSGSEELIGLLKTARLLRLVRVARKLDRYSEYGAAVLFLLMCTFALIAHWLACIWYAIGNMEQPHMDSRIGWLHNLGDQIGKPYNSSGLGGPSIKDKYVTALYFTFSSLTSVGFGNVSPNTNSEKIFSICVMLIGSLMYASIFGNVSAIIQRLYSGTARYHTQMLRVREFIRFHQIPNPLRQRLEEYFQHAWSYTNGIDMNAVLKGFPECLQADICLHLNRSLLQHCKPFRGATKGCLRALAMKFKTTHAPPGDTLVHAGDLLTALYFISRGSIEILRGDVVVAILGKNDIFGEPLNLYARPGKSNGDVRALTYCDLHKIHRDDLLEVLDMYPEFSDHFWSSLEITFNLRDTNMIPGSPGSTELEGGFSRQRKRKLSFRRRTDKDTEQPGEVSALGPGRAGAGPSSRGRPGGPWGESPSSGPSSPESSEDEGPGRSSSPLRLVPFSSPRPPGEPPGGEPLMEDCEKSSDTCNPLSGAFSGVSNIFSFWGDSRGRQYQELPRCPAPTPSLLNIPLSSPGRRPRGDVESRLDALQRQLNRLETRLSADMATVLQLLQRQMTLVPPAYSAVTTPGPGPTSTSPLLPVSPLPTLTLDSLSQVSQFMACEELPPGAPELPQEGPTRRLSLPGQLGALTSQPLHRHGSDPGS
As to `Cc1cc(C)c(OCCN2CCCC2)c(Cl)c1`, the “hERG current change (%, negative = inhibition) at 1uM” value worked out at 1.2%.

Consider `Cc1c(N=C/C=C/c2ccccc2)c(=O)n(-c2ccccc2)n1C`, for which the “hERG current change (%, negative = inhibition) at 1uM” value amounted to 12.9%. The figure for `N#Cc1ccccc1-c1ccccc1C(=O)N1CCCCC1` is -3.76%. The figure for `Cc1nc2cc(NC(=O)COc3ccc(C#N)cc3)ccc2n1-c1ccccc1` is -0.763%; for `CC(=O)Nc1cccc(NC(=O)c2ccccc2OCc2c(C)noc2C)c1` it is 2.05%; for `CN(C)S(=O)(=O)c1cccc(NC(=O)CCc2c[nH]c3ccccc23)c1` it is 0.382%. The same measure for `C=CCNC(=O)CC(=O)N/N=C/c1ccc(F)cc1`: 7.06%. On to `CN(C)S(=O)(=O)Oc1ccccc1C(=O)Nc1ccc(F)cc1F`, for which the “hERG current change (%, negative = inhibition) at 1uM” value is 10.1%. The figure for `COc1ccc(C(=O)NCCS(=O)(=O)N2CCC3(CC2)OCCO3)cc1` is 1.46%. The same measure for `COc1ccc(-c2nnn3c2nc(NCc2ccccc2)c2ccccc23)cc1`: 9.97%; for `CCCCn1c(N)c(N(CCOC)C(=O)c2c(-c3ccccc3)noc2C)c(=O)[nH]c1=O`: 13.3%; for `CCOC(=O)c1c(C)[nH]c(C(=O)CN2CC(C)OC(C)C2)c1C` (stereo not shown): 3.13%. The same measure for `CO/N=C(\N)c1nonc1N`: 4.34%; for `O=C(CCN1C(=O)/C(=C\c2ccccc2F)SC1=S)Nc1ccc(C(=O)O)c(O)c1`: 8.73%; for `CCC(C)NC(=O)CC(c1ccccc1)c1cc(C)ccc1O` (stereo not shown): 5.59%.

With `NC(=O)CSc1nnc(-c2cc(-c3cccs3)nc3ccccc23)o1`, the “hERG current change (%, negative = inhibition) at 1uM” value was found to be 9.75%. Consider `CSCC(C)N1CCC(N2CCC(C(=O)NCc3ccccn3)CC2)CC1` (stereo not shown), for which the “hERG current change (%, negative = inhibition) at 1uM” value was -0.769%. The same measure for `Cc1ccc(NC(=S)N(Cc2cccc(Br)c2)CC2CCC(C(=O)O)CC2)cc1` (stereo not shown): 2.17%.

With `CC(=O)Nc1ncc(Cc2cc(Cl)ccc2Cl)s1`, the “hERG current change (%, negative = inhibition) at 1uM” value is listed as 8.27%. Consider `Cc1cc(NS(=O)(=O)c2ccc(NC(=O)c3cnc4scc(C)n4c3=O)cc2)nc(C)n1`, for which the “hERG current change (%, negative = inhibition) at 1uM” value is -0.404%.

Take `COCCNC(=O)C(c1ccc(C)cc1)N(C(=O)CCC(=O)Nc1ccccn1)c1cccc(C)c1` (stereo not shown): the “hERG current change (%, negative = inhibition) at 1uM” value turned out to be 10.3%. For `CC(C)(CO)Nc1ncnc2onc(-c3ccc(F)cc3)c12`, the “hERG current change (%, negative = inhibition) at 1uM” value is reported as 18.2%. The same measure for `Cc1cc(N/C(=N/S(=O)(=O)c2cc(F)ccc2F)c2ccccc2)n(-c2ccccc2)n1`: 8.99%; for `CCCC12CN3CN(C1)CC(CCC)(C3)C2O` (stereo not shown): 0.683%; for `COc1ccc(N=C2C(=O)Nc3ccc(C)c(Br)c32)cc1`: 11.3%.

For the compound `CCCC(=O)c1cc2c(cc1NC(=O)c1ccccc1F)OCCO2`, the “hERG current change (%, negative = inhibition) at 1uM” value amounted to 10%. The same measure for `Oc1ccc(/C=N/n2c(COc3ccccc3)n[nH]c2=S)c(O)c1`: 9.31%.

Consider `COc1cccc(NC(=O)CN2C(=O)CSc3nc(C)cc(C)c32)c1`, for which the “hERG current change (%, negative = inhibition) at 1uM” value was 12.7%. For the compound `O=C(Cc1ccccc1)Nc1ccc(N2CCN(Cc3ccccc3F)CC2)cc1`, the “hERG current change (%, negative = inhibition) at 1uM” value turned out to be 7.89%. The figure for `O=C(OCCN1C(=O)c2ccccc2C1=O)c1cccc(OC(F)F)c1` is 5.04%; for `Cc1nc2c(C#N)cnn2c2c1CCNN2C` it is 8.06%. Turning to `COc1ccc(O)c(/C=N/NC(=O)CN2CCS(=O)(=O)CC2)c1`, the “hERG current change (%, negative = inhibition) at 1uM” value is on record as 15.5%. As for `COc1cc(C)ccc1OCCCOc1c(Cl)cccc1Cl`, the “hERG current change (%, negative = inhibition) at 1uM” value worked out at 16.2%.

Turning to `Cn1cccc1C(=O)N/N=C/c1c(Cl)cccc1Cl`, the “hERG current change (%, negative = inhibition) at 1uM” value turned out to be 5.63%. The figure for `CCCc1cc(C(=O)NNC(=S)NC2CCCCC2)cs1` is 8.84%; for `CCn1cc(CN2CCN(Cc3cccc(OC)c3)C(CCO)C2)c(C)n1` (stereo not shown) it is 5.38%. The same measure for `O=C(NCc1ccco1)C1CCN(Cc2ccc(F)cc2)CC1.O=C(O)C(=O)O`: 2.34%; for `O=C(c1sc2cc([N+](=O)[O-])ccc2c1Cl)N1CCOCC1`: 0.235%; for `CCN(CC)CCCNC(=S)N(Cc1cccnc1)Cc1cc2cc(C)cc(C)c2[nH]c1=O`: 15.4%. The same measure for `O=C1CCCC2=C1C(c1cccs1)n1ncnc1N2` (stereo not shown): 12.3%; for `[O-][n+]1onc2c1CCc1nnccc1-2`: 13.4%.

For `CC(C)(C)c1ccc(C(=O)NN2C(=O)CSC2=S)cc1`, the “hERG current change (%, negative = inhibition) at 1uM” value stood at 12.1%.

For `COC(=O)CSc1nc2nc(C)c(Br)cc2[nH]1`, the “hERG current change (%, negative = inhibition) at 1uM” value is on record as 3.44%. The same measure for `Cc1ccc(NC(=O)c2ccc(CSc3ccccn3)cc2)c(O)c1`: 15.7%; for `Cc1ccc(CNC(=O)c2cc(=O)c3ccccc3o2)cc1`: 13.5%. `COC(=O)C1=C(c2ccccc2OCc2ccccc2)C[C@@H]2CC[C@H]1N2C(=O)NCCc1ccc(F)cc1`: the “hERG current change (%, negative = inhibition) at 1uM” value was determined as 11.4%.
